# “And” between values parts separate entries of the source, which are not always exact repeats. Equal entries are not always repeated. Structures can show the parent of a compound that is named as a salt. The whole screen tested about 5,800 compounds, of which about 620 (11%) showed activity.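 Rule for the calls: active = score above a cut-off or among the top three wells of a plate; in these data no inactive exceeds 0.85.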 The list shows a part of the results, in another mix than the full data.
# System: primary human hepatic stellate cells (donor 1)
# Assay: scaled lipid accumulation score (0 = DMSO-like, 1 = nortriptyline-like); higher = stronger HSC inactivation (lipid re-accumulation), active = hit call of the paper
# Conditions: 48 h
# [1] = library stock concentration: 10 mM
# [2] = library stock concentration: 3.33 mM
# [3] = library stock concentration: 6.8 mM
structure (smiles),measurement,setting,value
Clc1ccc(C2CC3CCC2N3)cn1 (stereo not given),scaled lipid accumulation score,library stock concentration: 24 mM,inactive: ≤ -0.012
C[C@H](N)[C@H](O)c1ccc(O)c(O)c1 [Levonordefrin],scaled lipid accumulation score,,inactive: ≤ 0
same,scaled lipid accumulation score,[1],inactive: 0.01
same,scaled lipid accumulation score,library stock concentration: 10.9 mM,inactive: ≤ -0.001
O=[N+]([O-])/C=C/c1ccc2c(c1)OCO2 [Syk Inhibitor III],scaled lipid accumulation score,[2],inactive: 0.609
CC(C)N(CCC(C(N)=O)(c1ccccc1)c1ccccn1)C(C)C (stereo not given) [Disopyramide],scaled lipid accumulation score,,inactive: ≤ 0
same,scaled lipid accumulation score,[1],inactive: ≤ -0.07
CC(C)N(CCC(C(N)=O)(c1ccccc1)c1ccccn1)C(C)C (stereo not given) [Disopyramide phosphate],scaled lipid accumulation score,[1],inactive: ≤ 0 and inactive: 0.296
CC[C@@]1(O)C[C@H](O[C@H]2C[C@H](N(C)C)[C@H](O)[C@H](C)O2)c2c(cc3c(c2O)C(=O)c2c(O)cccc2C3=O)[C@H]1C(=O)OC [Aklavine hydrochloride],scaled lipid accumulation score,[1],inactive: 0.23
N[C@@H](Cc1ccc(N(CCCl)CCCl)cc1)C(=O)O [Melphalan],scaled lipid accumulation score,library stock concentration: 6.6 mM,inactive: 0.027 and inactive: ≤ -0.001
CC(C)=CCOc1c2occc2cc2ccc(=O)oc12 [Imperatorin],scaled lipid accumulation score,[1],inactive: ≤ -0.07 and inactive: 0.108
CCN1C[C@]2(C)CC[C@H](OC)[C@@]34C1[C@]1(OCO[C@@]15C[C@H](OC)[C@H]1C[C@]3(O)[C@@H]5[C@H]1OC)[C@@H](OC(C)=O)[C@H]24 [Deltaline],scaled lipid accumulation score,,inactive: ≤ 0
CC(Cc1ccc(OCC(=O)O)cc1)NCC(O)c1cccc(Cl)c1 (stereo not given),scaled lipid accumulation score,[1],inactive: 0.056
OC1CCCCC1N1CCC(c2ccccc2)CC1 (stereo not given) [Vesamicol hydrochloride],scaled lipid accumulation score,[3],inactive: ≤ 0
same,scaled lipid accumulation score,[1],inactive: ≤ -0.027
OC1CCCCC1N1CCC(c2ccccc2)CC1 (stereo not given),scaled lipid accumulation score,[1],inactive: ≤ 0
CCCCCCC[n+]1ccc(-c2cc[n+](CCCCCCC)cc2)cc1 [DHBP dibromide],scaled lipid accumulation score,[1],inactive: ≤ 0
C=CCN1C[C@H](C)N([C@H](c2ccc(C(=O)N(CC)CC)cc2)c2cccc(OC)c2)C[C@H]1C,scaled lipid accumulation score,[1],inactive: 0.332 and inactive: 0.353
C=CCN1C[C@H](C)N([C@H](c2ccc(C(=O)N(CC)CC)cc2)c2cccc(O)c2)C[C@H]1C,scaled lipid accumulation score,[1],inactive: ≤ -0.006
CCCN1CCC[C@@H]2Cc3nc(N)ncc3C[C@H]21 [Quinelorane dihydrochloride],scaled lipid accumulation score,[1],inactive: ≤ 0
"CN(N=O)c1ccc(O)c(O)c1 [Me-3,4-dephostatin]",scaled lipid accumulation score,[1],inactive: ≤ -0.055
CC(N)Cc1c[nH]c2ccc(OCc3cccs3)cc12.Cl (stereo not given) [BW 723C86 hydrochloride],scaled lipid accumulation score,[1],active: 1.3
Cc1ccccc1-n1c(Cn2cnc3c(N)ncnc32)nc2cccc(C)c2c1=O,scaled lipid accumulation score,library stock concentration: 400 uM,inactive: ≤ -0.005
same,scaled lipid accumulation score,library stock concentration: 2 mM,inactive: ≤ -0.005
same,scaled lipid accumulation score,[1],inactive: 0.386
"CNCC(O)c1ccc(O)cc1 (racemic) [(+,-)-Synephrine]",scaled lipid accumulation score,,inactive: ≤ 0
Cn1cnc(CCN)c1 [1-Methylhistamine dihydrochloride],scaled lipid accumulation score,[1],inactive: ≤ -0.055
Cn1cnc(CCN)c1 [N ?-Methylhistamine dihydrochloride],scaled lipid accumulation score,[1],inactive: 0.004
C1CCc2nnnn2CC1 [Pentylenetetrazole],scaled lipid accumulation score,,inactive: 0.026
same,scaled lipid accumulation score,[1],inactive: 0.024 and inactive: ≤ 0
C=CCN=C=S,scaled lipid accumulation score,[1],inactive: ≤ 0
C=C1[C@@H]2CC[C@H]3[C@]4(C)C[C@H](O[C@@H]5O[C@H](CO)[C@@H](OS(=O)(=O)O)[C@H](OS(=O)(=O)O)[C@H]5OC(=O)CC(C)C)C[C@@H](C(=O)O)[C@H]4CC[C@]3(C2)[C@@H]1O [Atractyloside potassium salt],scaled lipid accumulation score,,inactive: ≤ 0
C=C[C@H]1CN2CC[C@H]1C[C@@H]2[C@@H](O)c1ccnc2ccccc12 [Cinchonine],scaled lipid accumulation score,,inactive: ≤ 0
same,scaled lipid accumulation score,[3],inactive: ≤ 0
same,scaled lipid accumulation score,[1],inactive: ≤ 0
CC(Cc1ccc(O)cc1)NCC(O)c1cc(O)cc(O)c1 (stereo not given) [Fenoterol hydrobromide],scaled lipid accumulation score,,inactive: ≤ 0
same,scaled lipid accumulation score,library stock concentration: 5.2 mM,inactive: ≤ 0
same,scaled lipid accumulation score,[1],inactive: ≤ 0 and inactive: 0.294
"C/C(=C\c1csc(C)n1)[C@@H]1C[C@@H]2O[C@]2(C)CCC[C@H](C)[C@H](O)[C@@H](C)C(=O)C(C)(C)[C@@H](O)CC(=O)O1 [Epothilone B (EPO906, Patupilone)]",scaled lipid accumulation score,[2],inactive: ≤ 0
same,scaled lipid accumulation score,[1],inactive: ≤ 0
C=CC[C@]1(O)CC[C@H]2[C@@H]3CCC4=CC(=O)CCC4=C3C=C[C@@]21C [Altrenogest],scaled lipid accumulation score,[2],inactive: ≤ 0
same,scaled lipid accumulation score,library stock concentration: 6.4 mM,inactive: ≤ 0
same,scaled lipid accumulation score,[1],inactive: 0.15
CN1C(=O)[C@]23CC4=CC=C[C@H](O)[C@H]4N2C(=O)[C@@]1(CO)SS3 [Gliotoxin],scaled lipid accumulation score,library stock concentration: 15.3 mM,inactive: 0.467
OC[C@@H]1CCCN2CCCC[C@H]12 [Lupinine],scaled lipid accumulation score,[1],inactive: 0.006
